Measurements published in the RNAGym collection of RNA variant scans (doi:10.1093/nar/gkz1192).
Read counts are not given, so values of variants with three or more changes are uncertain.

B1: CPEB3 Ribozyme (parent)
chain: UAACAGGGGGCCACAGCAGAAGCGUUCACGUCGCAGCCCCUGUCAGAUUCUGGUGAAUCUGCGAAUUCUGCUGUAUAUCUC

Variants of: B1
Assay: self-cleavage, relative activity (ratio to wild type); higher = more cleavage; in vitro, sequencing
Method in brief: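 CPEB3 self-cleaving ribozyme mutant libraries were made by rounds of error-prone PCR, barcoded, and transcribed in vitro with T7 RNA polymerase for 5 hours at 37°C. Cleavage occurred during transcription and a 15 min DNase I step before EDTA stop. RNAs were reverse transcribed with template switching and Illumina-sequenced, with DNA sequencing mapping barcodes to variants. Relative activity is the variant's cleaved/total read fraction divided by wild type's (minimum 5 reads), averaged across three batches.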

| Variant | self-cleavage |
| --- | --- |
| U25A A35G U66C U76A | 0.31 |
| U25A A35U A45G A64G U78C | 0.13 |
| U25A A35U C40A U48A | 0.12 |
| U25A A35U G42A | 0.21 |
| U25A A35U U48A U72C U76A | 0.05 |
| U25A A35U U48C | 0.38 |
| U25A A35U U66C U72C G73A | 0.09 |
| U25A A35U U67C U74A U78C | 0.09 |
| U25A A45G A57U A65G U78A | 0.06 |
| U25A A45G G61A U67A | 0.13 |
| U25A A45G U58A | 0.17 |
| U25A A45G U58G C59G | 0.16 |
| U25A A45G U58G C62U | 0.05 |
| U25A A45G U60C U80C | 0.32 |
| U25A A45U A56U A65G | 0.11 |
| U25A A45U U51C | 0.06 |
| U25A A45U U58C U69C | 0.11 |
| U25A A45U U69C | 0.13 |
| U25A A47G A64U U72C | 0.23 |
| U25A A47G C59U U72C U76C C79U | 0.08 |
| U25A A47G G73A U74A A75U | 0.13 |
| U25A A47G U54C A77G | 0.1 |
| U25A A56G U72G | 0.23 |
| U25A A56U A65G A77U | 0.32 |

| Variant | self-cleavage |
| --- | --- |
| U25A A57G A64G U69C U72G | 0.07 |
| U25A A57G U69C | 0.12 |
| U25A A64G U67C | 0.34 |
| U25A A64G U74C | 0.2 |
| U25A A64G U78A | 0.17 |
| U25A A64U U66C | 0.15 |
| U25A A65G U78A | 0 |
| U25A A75C U78C | 0.11 |
| U25A A75G U76C | 0.6 |
| U25A A75G U80C | 0.18 |
| U25A A75U U78C | 0.23 |
| U25A C27G C32G A45U A77G | 0.17 |
| U25A C27U A45U U49A | 0.1 |
| U25A C27U A65U | 0.1 |
| U25A C29A A65U | 0.15 |
| U25A C29U A35G U41C U80A | 0.04 |
| U25A C29U A47G U69A A75U | 0.05 |
| U25A C34U C39A A65G U80C | 0.13 |
| U25A C37U C39G U74G U80A | 0.2 |
| U25A C38U U76C | 0.12 |
| U25A C39A A47U U80C | 0.19 |
| U25A C40A A45G U72C | 0.09 |
| U25A C40A U51A | 0.09 |
| U25A C40U A45U U72A | 0.13 |

| Variant | self-cleavage |
| --- | --- |
| U25A C50G A56U A64G U66C | 0.08 |
| U25A C50G U51C G53C A57G | 0.04 |
| U25A C62U U69C | 0.15 |
| U25A C68G U69C U76C U80A | 0.11 |
| U25A G30A A56U U60C U67C U78A | 0.1 |
| U25A G30A U31C | 0.16 |
| U25A G30C U41C A47U U67A | 0.05 |
| U25A G30C U41C U78C | 0.17 |
| U25A G33A U41A A56U U80A | 0.07 |
| U25A G33A U48C U54C A56G U67C U76A | 0.06 |
| U25A G36A U72C | 0.15 |
| U25A G36U U49G | 0.09 |
| U25A G46C U69C U80A | 0.08 |
| U25A G46U U66C | 0.12 |
| U25A G53A U69A | 0.23 |
| U25A G61U A77G | 0.14 |
| U25A U26A A45U C79A | 0.06 |
| U25A U26A U49C U67C | 0.06 |
| U25A U26C A35U | 0.17 |
| U25A U26C A45U A65G A77U | 0.09 |
| U25A U26C A56G U67G | 0.05 |
| U25A U26C A57G U69C | 0.08 |
| U25A U26C A65G A75G | 0.08 |
| U25A U26C G36A A64G U72A | 0.13 |

| Variant | self-cleavage |
| --- | --- |
| U25A U26C U41C A56G A65G | 0.17 |
| U25A U26C U41C G73A | 0.09 |
| U25A U26C U41C U76C A77U | 0.21 |
| U25A U26C U43A U72G U80C | 0.23 |
| U25A U26C U49C U66C | 0 |
| U25A U26C U66C | 0.09 |
| U25A U26C U69A U80A | 0.37 |
| U25A U26C U78C | 0.14 |
| U25A U26G U41A A47G C50U C71U | 0.05 |
| U25A U31A U69C | 0.14 |
| U25A U31C C50U | 0.34 |
| U25A U31C U41A A56G U72C | 0.07 |
| U25A U31C U41A U80C | 0.3 |
| U25A U31C U43A U78C | 0.09 |
| U25A U31C U54C U80A | 0.09 |
| U25A U31C U66C | 0.12 |
| U25A U41A A45U | 0.14 |
| U25A U41A U43C | 0.19 |
| U25A U41A U43C U78A | 0.19 |
| U25A U41A U51C U72C | 0.2 |
| U25A U41A U78C | 0.1 |
| U25A U41C U48C U49G | 0.17 |
| U25A U41C U74C | 0.12 |
| U25A U41G U51C | 0.07 |

| Variant | self-cleavage |
| --- | --- |
| U25A U43A U49C G70A U78C | 0.07 |
| U25A U43C A45U U67A U80C | 0.26 |
| U25A U43C A57G U72C | 0.28 |
| U25A U43C U49C A57U U58G U60C | 0.02 |
| U25A U43C U80C | 0.33 |
| U25A U48C A56G U67C | 0.1 |
| U25A U48C A64G U69C | 0.08 |
| U25A U48C G73A | 0.07 |
| U25A U48C U54C U78C C81G | 0.15 |
| U25A U48G U54G U80G | 0.04 |
| U25A U49A U60C | 0.14 |
| U25A U51A U74C | 0.28 |
| U25A U51A U74C U80A | 0.09 |
| U25A U51C A56G U76A | 0.14 |
| U25A U51C A65G | 0.26 |
| U25A U54C C71U | 0.12 |
| U25A U54C U60C | 0.18 |
| U25A U54C U60G U72C | 0.15 |
| U25A U54G A64G U74A A75U | 0.13 |
| U25A U58C U66C U74A | 0.06 |
| U25A U58C U67A | 0.15 |
| U25A U60C C71A U80A | 0.12 |
| U25A U60C U69A | 0.13 |
| U25A U66C U76C | 0.25 |

| Variant | self-cleavage |
| --- | --- |
| U25A U69A U78C | 0.39 |
| U25A U72C U74C | 0.21 |
| U25A U72C U80C | 0.05 |
| U25A U74A A77U | 0.25 |
| U25C A28C A56G U60C A64U G73A | 0.05 |
| U25C A28C U41C U49C | 0.06 |
| U25C A28C U41C U72A C79U | 0.21 |
| U25C A28G A35U | 0.21 |
| U25C A28G A45G C68U | 0.27 |
| U25C A28G A45U G46C U67A U69A A75G | 0.11 |
| U25C A28G A56G A57G | 0.17 |
| U25C A28G A57G | 0.35 |
| U25C A28G A57G A77G | 0.15 |
| U25C A28G A65G | 0.25 |
| U25C A28G C29A | 0.27 |
| U25C A28G C38A U76C | 0.09 |
| U25C A28G U31C A64G C71G | 0.1 |
| U25C A28G U31C U43C | 0.24 |
| U25C A28G U41C U69C | 0.12 |
| U25C A28G U41G U51G U76A | 0.07 |
| U25C A28G U43A U58C U66A | 0.08 |
| U25C A28G U48C A56U U72A A75G | 0.07 |
| U25C A28G U60C U78C | 0.1 |
| U25C A28G U67A U72C | 0.05 |

| Variant | self-cleavage |
| --- | --- |
| U25C A28G U69A | 0.26 |
| U25C A28G U69C U78C | 0.19 |
| U25C A28G U72A | 0.14 |
| U25C A28U A35G U58A U66C A75G | 0.05 |
| U25C A28U A64G | 0.33 |
| U25C A28U C29U U31A U78C | 0.29 |
| U25C A28U C40U A65G U80C | 0.18 |
| U25C A28U C71U | 0.09 |
| U25C A28U U31A C37U U54C | 0.09 |
| U25C A28U U31A G73U | 0.09 |
| U25C A28U U41A A45U | 0.23 |
| U25C A28U U43A G52A U69C U76C | 0.14 |
| U25C A28U U49C U60A C62A U72A | 0.05 |
| U25C A28U U51A A65G | 0.25 |
| U25C A28U U60A U72A | 0.16 |
| U25C A28U U66C C71U | 0.08 |
| U25C A35C U54C | 0.31 |
| U25C A35G A45U A47U U58C | 0.06 |
| U25C A35G A47G | 0.13 |
| U25C A35G A47U | 0.18 |
| U25C A35G A47U U49A C62U | 0.12 |
| U25C A35G A56U | 0.13 |
| U25C A35G A56U U60C | 0.18 |
